The record followed here is patent US11793801B2, “Treatment of pain and neurological conditions” (BioCorRx, Inc., priority 2020, dated 2023).

Like-named read-outs stand apart in the source and are kept apart here.

For this test, the target named is ORL1 (NOP) receptor (Homo sapiens, UniProt P41146). Particulars: in vitro.
Sequence of UniProt P41146 (P41146 whole entry): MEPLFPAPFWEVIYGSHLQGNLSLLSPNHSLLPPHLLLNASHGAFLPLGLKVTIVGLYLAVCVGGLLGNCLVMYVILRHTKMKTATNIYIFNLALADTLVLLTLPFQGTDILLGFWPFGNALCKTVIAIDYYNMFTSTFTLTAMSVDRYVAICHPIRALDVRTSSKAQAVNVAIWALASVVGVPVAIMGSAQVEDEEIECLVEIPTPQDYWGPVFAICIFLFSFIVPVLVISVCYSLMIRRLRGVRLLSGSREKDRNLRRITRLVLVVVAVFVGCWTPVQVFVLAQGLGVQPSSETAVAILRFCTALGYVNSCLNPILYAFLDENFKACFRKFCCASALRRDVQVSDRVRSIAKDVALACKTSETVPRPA

As to `CCC(=O)NC1CC(C)N(CCc2ccccc2)CC1C` (centres unmarked) [Compound 1, N-[2,5-dimethyl-1-(2-phenylethyl)piperidin-4-yl]propanamide], the “Receptor ORL1 (NOP): mode of action” value is recorded as “Antagonist”. For the same molecule, the “Receptor ORL1 (NOP): mode of action” value (listed as compound 1) is listed as “antagonist”.
